PMC4336329 (PLoS ONE, 2015)
Among all 310,000 compounds or so, about 14,000 (4.5%) showed an effect of 50% or more. Effects have a minus sign here. This is one part of the list.

What follows are compounds tested against human ether-à-go-go-related gene (hERG) potassium channel (human, UniProt Q12809) (assay: primary screen, population patch clamp on CHO cells stably expressing hERG).
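Also: peak tail current of the secondary pulse compared with the same well before compound.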

human ether-à-go-go-related gene (hERG) potassium channel, sequence (Q12809 whole entry, looked up): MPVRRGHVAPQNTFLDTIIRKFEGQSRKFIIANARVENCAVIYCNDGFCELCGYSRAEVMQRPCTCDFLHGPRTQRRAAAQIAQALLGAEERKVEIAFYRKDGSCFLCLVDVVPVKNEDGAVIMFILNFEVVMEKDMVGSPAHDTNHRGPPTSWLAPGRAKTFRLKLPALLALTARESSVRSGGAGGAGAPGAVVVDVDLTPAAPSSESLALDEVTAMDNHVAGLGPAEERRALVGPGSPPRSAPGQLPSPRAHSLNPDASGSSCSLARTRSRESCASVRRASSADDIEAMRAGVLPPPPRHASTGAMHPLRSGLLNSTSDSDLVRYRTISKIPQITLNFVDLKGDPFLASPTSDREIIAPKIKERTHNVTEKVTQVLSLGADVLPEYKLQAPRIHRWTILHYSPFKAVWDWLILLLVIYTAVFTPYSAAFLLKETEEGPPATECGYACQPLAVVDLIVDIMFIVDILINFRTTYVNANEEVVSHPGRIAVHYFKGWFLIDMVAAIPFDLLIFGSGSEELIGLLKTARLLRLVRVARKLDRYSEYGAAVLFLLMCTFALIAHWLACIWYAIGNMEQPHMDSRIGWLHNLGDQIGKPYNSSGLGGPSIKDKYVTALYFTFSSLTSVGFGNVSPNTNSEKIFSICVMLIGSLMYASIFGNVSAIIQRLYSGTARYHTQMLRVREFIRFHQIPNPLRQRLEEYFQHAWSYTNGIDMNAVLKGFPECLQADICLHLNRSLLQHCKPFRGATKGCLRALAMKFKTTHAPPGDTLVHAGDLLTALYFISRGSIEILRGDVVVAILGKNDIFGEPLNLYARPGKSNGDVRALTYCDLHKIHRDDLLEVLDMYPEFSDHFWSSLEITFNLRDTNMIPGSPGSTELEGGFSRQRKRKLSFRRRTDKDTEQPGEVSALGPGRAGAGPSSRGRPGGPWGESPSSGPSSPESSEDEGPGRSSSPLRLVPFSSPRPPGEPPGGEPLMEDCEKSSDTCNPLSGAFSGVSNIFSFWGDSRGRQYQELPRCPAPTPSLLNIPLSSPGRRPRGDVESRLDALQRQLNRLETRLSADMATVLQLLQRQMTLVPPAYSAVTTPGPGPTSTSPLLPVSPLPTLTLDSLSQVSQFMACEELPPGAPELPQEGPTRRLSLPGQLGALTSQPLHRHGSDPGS

Structure (SMILES) | hERG current change (%, negative = inhibition) at 10uM [%]
O=C(Cn1ncc2c([nH]c3ccccc32)c1=O)Nc1ccc(CN2CCCCC2)cc1 | -65.8
CN(CCCNC(=O)c1cn(C)c2ccc(S(=O)(=O)N(C)C)cc2c1=O)c1ccccc1 | -29.4
Nc1nc2sc3c(c2c(=O)s1)CCCC3 | 0.874
COCCNc1nnc(SC(C)C(=O)Nc2c(C)n(C)n(-c3ccccc3)c2=O)s1 (centres unmarked) | 11.8
CN1CCN(C(c2cccnc2)c2ccc3cccnc3c2O)CC1 (centres unmarked) | -4.29
CCN1CCN(C(=O)/C(C#N)=C/c2ccc(OC(F)F)cc2)CC1.Cl | -74.3
CC1CCN(C(=O)CCNC(=O)c2ccccc2Cl)CC1 | 8.92
CC(=O)c1ccc(NC(=O)C(C)OC(=O)c2ccc(Br)o2)cc1 (centres unmarked) | -3.54
Cc1ccc(C(=O)Cn2nnc(-c3ccccc3)n2)cc1 | -5.06
COc1cccc(C2=NOC(C(=O)Nc3cc(C)on3)C2)c1OC (centres unmarked) | 0.74
CC(C(=O)N1CCN(c2ccccc2F)CC1)c1ccc([N+](=O)[O-])cc1 (centres unmarked) | -68.4
CCS(=O)(=O)N1CCC(C(=O)NCc2cccc(OC)c2)CC1 | 5.22
O=C(NC(=S)NC1CCCCC1)c1ccc(Cl)cc1 | -11.6
CCN(Cc1ccccc1)C(=O)CCNS(=O)(=O)c1ccc2c(c1)CC(C)N2C(C)=O (centres unmarked) | -13.8
CCC(C)NS(=O)(=O)c1ccc(NC(=O)Cc2ccc(OC)cc2)cc1 (centres unmarked) | 8.01
CCN(C(=O)c1ccc(C(C)(C)C)cc1)c1nnc(Cn2nnc3ccccc32)s1 | 18.6
CN1CCN(c2ncnc3c2cnn3C)CC1 | 19.5
Cc1c(C(=O)N2CCN(c3ccccc3)CC2)oc2c1C(=O)CC(C)(C)C2 | -13.6
CC1CCN(c2ccc(-c3cccs3)nn2)CC1 | 10.1
CCOc1cc(C(=O)O/N=C(\N)c2ccccn2)cc(OCC)c1OCC | -5.84
CC1(c2nnc(-c3ccncc3)o2)CC(c2ccccc2)=NO1 (centres unmarked) | 12.9
CS(=O)(=O)c1ccc(Cl)c(C(=O)OCC(=O)NC2CCCCCCC2)c1 | -27.9

Structure (SMILES) | hERG current change (%, negative = inhibition) at 10uM [%]
Cc1ccc(NC2=CC(=O)C(=O)c3ccccc32)c(C)c1 | 16.7
O=C(c1ccco1)c1coc2c1cc(O)c1ccccc12 | 13.4
CCOC(=O)C1CCN(c2nc3ccccc3nc2C(C#N)C(=O)OC(C)C)CC1 (centres unmarked) | 17.4
Cc1ccc(S(=O)(=O)N2CCN(c3ccccc3)CC2)cc1 | 13
Cc1ccc(C)c(OCC(=O)N/N=C/c2ccsc2)c1 | 3.35
COc1ccc(C(=O)NCC(=O)n2nc(C)cc2C)cc1OC | 18.6
Cc1ccc(NC(=O)N2CCC(C(=O)NCc3ccc(F)cc3)CC2)cc1 | -52.2
COc1c(OC)c(O)c2c(=O)cc(-c3c(O)cccc3O)oc2c1OC | -1.14
CCN(CC)S(=O)(=O)c1cccc(NC(=O)c2ccccc2Br)c1 | -15.7
COc1ccc(-c2nc3ccc(C(=O)NCC(OC)OC)cc3nc2-c2ccc(OC)cc2)cc1 | -1.79
Cc1cc(C)n(CC(O)COCc2ccccc2)n1 (centres unmarked) | 4.09
Cc1c(NC(=O)CCN2C(=O)c3ccccc3C2=O)c(=O)n(-c2ccccc2)n1C | 1.71
Nc1ccc(C(=O)Oc2ccc([N+](=O)[O-])cc2)c(O)c1 | 15.3
Cc1nn(C)cc1C(C(=O)NC1CCCCC1)N(C(=O)Cc1cccs1)c1ccc(Cl)cc1 (centres unmarked) | 13.6
CSc1cccc(NC(=O)CN(c2cc(C)ccc2C)S(C)(=O)=O)c1 | -2.02
CCc1ccc(NC(=O)COc2ccc(F)cc2C(=O)c2cnn(-c3ccccc3)c2)cc1 | -0.355
COc1ccc(/C=N/NC(=O)c2nnn(-c3nonc3N)c2CN(C)c2ccccc2)cc1 | 9.9
Cc1cc(C)cc(N(CC(=O)N2CCC(C)CC2)S(=O)(=O)c2ccccc2)c1 | -70.3
Cn1c(=O)c2c(nc(NCc3ccco3)n2CC(O)COc2ccccc2)n(C)c1=O (centres unmarked) | -25.9
N#CC(=C1CCCC1)c1nc(-c2cc3ccccc3oc2=O)cs1 | 13
Cc1ccc(C(=O)N2CCN(c3ccc(NC(=O)c4ccc(Br)o4)cc3)CC2)cc1 | -68.8
CSc1nc2sc3c(c2c(=O)[nH]1)CC(C)(C)OC3 | 13.8

Structure (SMILES) | hERG current change (%, negative = inhibition) at 10uM [%]
CN1C(=O)C(CC(=O)Nc2ccc(F)cc2)N(Cc2ccco2)C1=S (centres unmarked) | -18.3
COC(=O)c1ccc(Nc2cc(C)nc3ncnn23)cc1 | 2.44
CN(C)CCc1cc2c(c3c1ccc1ccccc13)OCO2.Cl | -37.3
Clc1ccc(-c2csc(N3CCN(c4ccccc4)CC3)n2)cc1 | 5.69
O=C1C(c2ccccc2)=[N+]([O-])c2ccccc21 | 4.03
C=CCc1cc(/C=N\NC(=O)CSc2nnc(CCCc3ccc(OC)c(C)c3)o2)cc(OC)c1O | 6.96
Cn1nc(C(F)(F)F)c(-c2ccccc2)c1N | 13.3
CC1(C(=O)c2ccccc2)C2c3c(ccc4ccccc34)OC(=O)C21C(=O)N1CCOCC1 (centres unmarked) | -9.87
CCOc1c2ccc(C(=O)NCc3ccc4c(c3)OCO4)cc2nn1C | 17.6
Cc1ccc(N(C(=O)c2ccc3c(c2)OCO3)C2C=CS(=O)(=O)C2)cc1 (centres unmarked) | -29.7
CCC1(CC)NC(=O)N(CC(=O)OCC(=O)Nc2ccc(F)c(F)c2F)C1=O | 11
COc1ccc(-n2c(N)c(-c3nc4ccccc4n3C)sc2=S)cc1 | 9.76
O=C(Nc1ccc2oc(-c3ccccc3)nc2c1)c1cc(-n2cnnc2)ccc1Cl | 3.83
CCN(CC)S(=O)(=O)c1ccc(N2CCOCC2)c(NC(=O)c2ccc(=O)n(C)n2)c1 | -25.7
COc1ccc(CN2CCNC(=O)C2CC(=O)N(C)Cc2ccccn2)cc1OC (centres unmarked) | 11.1
O=C(CN1C(=O)NC(Cc2c[nH]c3ccccc23)C1=O)NC1CC1 (centres unmarked) | 15.1
COCCNS(=O)(=O)c1ccc2c(c1)oc(=O)c1cc(S(=O)(=O)NCCOC)ccc12 | -49.1
CCCCn1c(SCC(=O)c2ccc(OCC)cc2)nc2cc(S(N)(=O)=O)ccc21 | 26.2
Cc1nn(Cc2ccc(F)cc2)c(C)c1NC(=O)c1cnn2c1NC(c1ccccc1)CC2C(F)(F)F (centres unmarked) | -17.7
CCOc1ccc(CO[C@@H]2O[C@H](CO)[C@@H](O)[C@H](O)[C@H]2NC(C)=O)cc1OC | 20.9
Cc1ccnc(NC(=O)C2CCN(S(=O)(=O)c3ccc(Cl)c(C(F)(F)F)c3)CC2)c1 | -14.2
Cc1ccc(SCC2(O)CCN(C(=O)c3ccc(Cl)cc3)CC2)cc1 | -44

Structure (SMILES) | hERG current change (%, negative = inhibition) at 10uM [%]
O=C(COc1ncnc2ccccc12)NCc1ccc2c(c1)OCO2 | -4.09
Cc1ccc(C)c(S(=O)(=O)N2CCCCC2CCNC(=O)C(=O)NCc2ccccc2)c1 (centres unmarked) | -15.8
Cc1ccccc1N1CCN(C(=O)c2ccccc2NC(=O)C2CC=CCC2C(=O)O)CC1 (centres unmarked) | -3.7
Oc1ccccc1-c1nc(N2CCN(Cc3ccccc3)CC2)c2ccccc2n1 | 10.5
COc1ccc(C(=O)Nc2ccccc2C(=O)N2CCCCCC2)cc1OC | -10.5
CC(C)(C)NC(=O)CN(C(=O)C(=O)Nc1ccc2c(c1)OCCO2)C1CC1 | 10.3
O=C(Nc1ccccc1F)c1ccc(OCc2ccccc2)cc1 | 4.37
Cc1ccc(NC(=O)c2cccc3c2C(=O)N(C2CCCCC2)C3)cc1 | 13.2
COc1ccc(CC(=O)Nc2c3c(nn2-c2cccc(Cl)c2)CS(=O)(=O)C3)cc1 | -51.7
COc1ccc(N2CCN(C(=O)c3cc(=O)c4cc(C)c(C)cc4o3)CC2)cc1 | 0.819
CCOc1ccc(N2C(=O)CC(/C=C3/N(C)c4ccccc4C3(C)C)C2=O)cc1 (centres unmarked) | 17.3
COc1cc(S(=O)(=O)N2CCN(C(=O)c3ccco3)CC2)c(OC)cc1C | 6.03
C=CCNc1oc(-c2cccc3ccccc23)nc1C#N | -10.2
CCN1CCCC1CNC(=O)C(NC(=O)C1CCC(C)CC1)C(C)C (centres unmarked) | 8.48
COc1ccc(OCC(=O)Nc2cc(-c3nn4c(C)nnc4s3)ccc2C)cc1 | -4.85
CCOC(=O)c1c(-c2ccc(C)o2)csc1NC(=O)COC(=O)c1cccs1 | -12
C=CCn1c(=S)sc2c(=O)[nH]cnc21 | 12.4
Cc1nnc(SCc2cccc([N+](=O)[O-])c2)s1 | -0.735
COc1ccc(OCCn2ccnc2)cc1 | 12.4
COc1cccc(NC(=O)CC2C(=O)NC3CCCCC3N2C(=O)c2ccccc2)c1 (centres unmarked) | 16.9
